Measured values published in PMC4336329 (PLoS ONE, 2015).
In all, about 310,000 compounds went through this assay and about 2,200 (0.71%) showed an effect of 50% or more. Effects have a minus sign here. The list shows a part of the results.

Biological target: human ether-à-go-go-related gene (hERG) potassium channel (human, UniProt Q12809)
Experiment: primary screen, population patch clamp on CHO cells stably expressing hERG

Sequence of human ether-à-go-go-related gene (hERG) potassium channel (Q12809 whole entry, looked up): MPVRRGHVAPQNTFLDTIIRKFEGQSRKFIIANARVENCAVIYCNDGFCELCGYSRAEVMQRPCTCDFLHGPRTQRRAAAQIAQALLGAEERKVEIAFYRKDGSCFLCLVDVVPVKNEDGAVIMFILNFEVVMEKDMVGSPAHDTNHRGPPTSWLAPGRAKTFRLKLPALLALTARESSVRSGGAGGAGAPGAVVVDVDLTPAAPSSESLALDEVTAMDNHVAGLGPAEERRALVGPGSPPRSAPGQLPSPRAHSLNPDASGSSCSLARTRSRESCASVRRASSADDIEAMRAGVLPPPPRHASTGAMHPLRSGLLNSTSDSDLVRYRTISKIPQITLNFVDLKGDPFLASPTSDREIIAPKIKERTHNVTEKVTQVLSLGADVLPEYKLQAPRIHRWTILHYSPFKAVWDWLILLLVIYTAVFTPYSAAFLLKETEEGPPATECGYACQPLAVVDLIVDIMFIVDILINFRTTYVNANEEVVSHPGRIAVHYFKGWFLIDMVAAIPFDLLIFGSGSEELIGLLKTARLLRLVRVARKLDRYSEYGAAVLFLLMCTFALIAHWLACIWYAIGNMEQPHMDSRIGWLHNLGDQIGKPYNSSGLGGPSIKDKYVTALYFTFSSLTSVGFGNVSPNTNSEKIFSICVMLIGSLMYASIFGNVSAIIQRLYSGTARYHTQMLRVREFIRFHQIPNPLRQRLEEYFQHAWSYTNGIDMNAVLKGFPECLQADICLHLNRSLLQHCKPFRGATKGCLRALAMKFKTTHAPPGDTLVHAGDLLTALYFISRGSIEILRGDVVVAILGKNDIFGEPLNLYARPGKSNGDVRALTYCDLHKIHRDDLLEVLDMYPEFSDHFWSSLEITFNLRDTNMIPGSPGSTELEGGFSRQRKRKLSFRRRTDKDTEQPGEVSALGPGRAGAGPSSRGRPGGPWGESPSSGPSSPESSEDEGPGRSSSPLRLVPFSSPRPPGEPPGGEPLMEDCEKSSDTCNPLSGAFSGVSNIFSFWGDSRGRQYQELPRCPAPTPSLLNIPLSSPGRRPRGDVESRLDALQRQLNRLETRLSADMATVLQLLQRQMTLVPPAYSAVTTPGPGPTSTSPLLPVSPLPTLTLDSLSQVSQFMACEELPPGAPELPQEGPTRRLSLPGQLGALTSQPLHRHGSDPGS

Compared with CCOc1cc(/C=N/NC(=O)CNc2cccc(C)c2)ccc1OC(=O)c1ccccc1, Cc1ccc(NC(=O)CN(C)C(=O)CCOc2ccccc2C)cc1 is lower in “hERG current change (%, negative = inhibition) at 1uM” value: 9.63% for the first, 4.67% for the second.

Going from Cc1cc(Cl)c(S(=O)(=O)N2CCN(c3ccccc3)CC2)cc1OCC(N)=O to CCc1ccc(N2CCN(C(=O)c3ccc(OC)c(OC)c3)CC2)cc1, the “hERG current change (%, negative = inhibition) at 1uM” value falls from 7.06% to -8.2%.

Compared with Cc1ccc(-c2nnc(CSc3nc(C(C)C)nc4sc(C)c(C)c34)o2)cc1, NC(=O)CSc1nnc(-c2ccc([N+](=O)[O-])cc2)o1 is higher in “hERG current change (%, negative = inhibition) at 1uM” value: -10.7% for the first, 5.43% for the second.

First: COc1ccccc1N(CC(=O)NCCN1CCOCC1)S(=O)(=O)c1ccccc1
Second: O=C(CSc1nc2ccccc2c(=O)n1CCCN1CCOCC1)c1c[nH]c2ccccc12
The “hERG current change (%, negative = inhibition) at 1uM” value of the first is higher: 16.4% for the first, 0.908% for the second.

Going from O=C(c1cccs1)N1CCc2ccccc21 to CCCn1nc(C(=O)N2CCCc3ccccc32)c2ccccc2c1=O, the “hERG current change (%, negative = inhibition) at 1uM” value falls from -4.39% to -4.52%.

First: COc1ccc(NC(=S)NCc2ccccn2)cc1OC
Second: COc1ccc(CN2CCC(C(=O)N3CCN(c4ccccc4F)CC3)CC2)cc1OC
The “hERG current change (%, negative = inhibition) at 1uM” value of the first is higher: 7.17% for the first, 3.9% for the second.

Compared with O=C1N[C@@H](Cc2ccccc2)C(=O)N1CCN1CCOCC1, COCCCn1c(=O)c2ccccc2n(Cc2ccccc2)c1=O is lower in “hERG current change (%, negative = inhibition) at 1uM” value: 12.2% for the first, 6.88% for the second.

Going from Cc1ccc(S(=O)(=O)N2CCC(C(=O)NN3CCCCC3)CC2)cc1 to O=C(c1ccc(S(=O)(=O)N2CCOCC2)cc1)N(c1ccccn1)C1CCCCC1, the “hERG current change (%, negative = inhibition) at 1uM” value falls from 9.51% to -3.26%.

Compared with O=C(NCc1cccc(C(F)(F)F)c1)c1ccc2c(c1)OCCO2, Cc1ccccc1C(=O)Nc1ccc2c(c1)OCO2 is lower in “hERG current change (%, negative = inhibition) at 1uM” value: 10% for the first, 9.21% for the second.

Going from Cc1ccc(C)c(NC(=O)CCN2CCN(c3ccccc3F)CC2)c1 to O=C(CN1CCCC1)Nc1ccc(NC(=O)Nc2ccccc2Cl)cc1, the “hERG current change (%, negative = inhibition) at 1uM” value falls from 0.666% to -4.47%.

Going from Cc1nc(SCCO)c([N+](=O)[O-])[nH]1 to COCCNc1nc(C)c(C(C)=O)s1, the “hERG current change (%, negative = inhibition) at 1uM” value falls from 12.4% to 9.62%.

First: COc1cc(/C=C/c2ccc3c([N+](=O)[O-])cccc3n2)ccc1OCC(=O)O
Second: O=c1c2ccccc2nc(/C=C/c2cc(Br)ccc2O)n1CCO
The “hERG current change (%, negative = inhibition) at 1uM” value of the first is higher: 11% for the first, 4.82% for the second.

Going from CC(=O)c1c(C)[nH]c(C(=O)CN2C(=O)NC(C)(CCC(C)C)C2=O)c1C (centres unmarked) to CC1(CCc2ccccc2)NC(=O)N(CC(=O)N2CC(=O)Nc3ccccc32)C1=O (centres unmarked), the “hERG current change (%, negative = inhibition) at 1uM” value falls from 14.7% to 6.08%.

Going from O=C(NCc1ccc2c(c1)OCO2)C1CCC(CNc2c(N3CCCC3)c(=O)c2=O)CC1 (centres unmarked) to COc1cc(CCc2ccc3c(c2)OCO3)oc(=O)c1, the “hERG current change (%, negative = inhibition) at 1uM” value falls from 14.5% to 12.8%.

Going from CC(C)N(Cc1cnn(C)c1)Cc1nc(Cc2ccccc2Cl)no1 to CC1CN(C(=O)c2cnn3c(C(F)F)cc(-c4ccccc4)nc23)CC(C)O1 (centres unmarked), the “hERG current change (%, negative = inhibition) at 1uM” value falls from 4.8% to 4.52%.

Going from O=C(CSc1nccc(-c2cccs2)n1)Nc1cccc(Cl)c1Cl to O=C(Nc1nc(-c2cc(F)ccc2F)cs1)c1ccccn1, the “hERG current change (%, negative = inhibition) at 1uM” value falls from 13.6% to 10.7%.

Going from CC(=O)Oc1ccc(-c2ccc(C(=O)OCC(=O)N(C)CC(=O)Nc3ccccc3Cl)cc2)cc1 to COc1ccccc1C(=O)NC(=O)COC(=O)c1ccc(Cl)nc1, the “hERG current change (%, negative = inhibition) at 1uM” value rises from -41% to 14%.

First: CC(C)(C)c1ccc(C(=O)Nc2ccc(S(=O)(=O)Nc3cnc4ccccc4n3)cc2)cc1
Second: Cc1noc(NS(=O)(=O)c2ccc(NC(=O)C(C)(C)C)cc2)c1C
The “hERG current change (%, negative = inhibition) at 1uM” value of the first is lower: -8.1% for the first, 14.9% for the second.

Going from Oc1cccc(-n2nnnc2SCc2ccccc2F)c1 to COC(=O)C1=C(C(=O)c2ccc(C)cc2)C(c2ccccc2)n2nnnc2N1 (centres unmarked), the “hERG current change (%, negative = inhibition) at 1uM” value falls from 8.72% to -5.72%.

First: CC(C)=NOc1cc(NC(=O)CCl)cc([N+](=O)[O-])c1
Second: COc1cc(NC(=O)CCS(=O)(=O)c2ccc3c(c2)n(C)c(=O)c(=O)n3C)cc(OC)c1
The “hERG current change (%, negative = inhibition) at 1uM” value of the first is lower: 6.87% for the first, 9.28% for the second.

Going from O=C(NC(Cc1c[nH]c2ccccc12)C(=O)N/N=C/c1ccc(Cl)cc1)c1cccs1 (centres unmarked) to NC(=O)CC(NC(=O)Cc1ccc(Br)cc1)c1ccc(NCCc2ccccc2F)c([N+](=O)[O-])c1 (centres unmarked), the “hERG current change (%, negative = inhibition) at 1uM” value rises from 0.956% to 5.23%.

Going from O=C(NCCN=C1NS(=O)(=O)c2ccccc21)c1ccccc1 to Cc1csc(N(C(=O)CCNC(=O)c2ccc([N+](=O)[O-])cc2)c2ccccc2)n1, the “hERG current change (%, negative = inhibition) at 1uM” value falls from 13.8% to 0.189%.

Compared with Cc1ccccc1Cn1ccc(NC(=O)c2nc3ncccn3n2)n1, Cc1ccccc1CN1CCNC(=O)C1CC(=O)O (centres unmarked) is lower in “hERG current change (%, negative = inhibition) at 1uM” value: 13.4% for the first, 12.5% for the second.

Going from NCCc1c[nH]c2ccccc12 to Clc1ccccc1N=C1SCCS1, the “hERG current change (%, negative = inhibition) at 1uM” value falls from 17.7% to 10.4%.

Going from FC(F)(F)c1nc(NCc2ccccc2)c2nnn(Cc3ccccc3)c2n1 to CN1OC(c2ccccc2)=C(CO)C1c1ccccc1 (centres unmarked), the “hERG current change (%, negative = inhibition) at 1uM” value falls from 11.8% to 5.08%.

First: Cc1c(C(=O)N(Cc2ccco2)Cc2cccs2)oc2ccccc12
Second: Br.COc1ccc(C(=O)CN(Cc2ccccc2)C2=NCCS2)cc1
The “hERG current change (%, negative = inhibition) at 1uM” value of the first is lower: -7.49% for the first, -0.202% for the second.

First: NS(=O)(=O)c1ccc(CNC(=O)/C=C/c2cccc(Cl)c2)cc1
Second: O=C(/C=C/c1ccc(F)cc1)NCc1cccs1
The “hERG current change (%, negative = inhibition) at 1uM” value of the first is lower: 3.67% for the first, 5.83% for the second.

Going from CCOC(=O)C1=C(C)N(C)C(=S)NC1c1ccc(Cl)cc1Cl (centres unmarked) to CCOC(=O)c1c(C)oc2cc(Sc3ccccc3)c(O)c(O)c12, the “hERG current change (%, negative = inhibition) at 1uM” value falls from 16.6% to 9.96%.

Going from CC1Cc2cc(-c3csc(NC(=O)Cc4ccccc4)n3)ccc2N1S(C)(=O)=O (centres unmarked) to CC(C)(C)C(=O)Nc1cccc(-c2nc3ccccc3[nH]2)c1, the “hERG current change (%, negative = inhibition) at 1uM” value rises from -2.45% to 6.39%.

First: COc1ccc(S(=O)(=O)NCc2cccs2)cc1
Second: COc1ccc(-n2ncc(C(C)NS(=O)(=O)c3ccc(C(C)=O)cc3)c2C)cc1 (centres unmarked)
The “hERG current change (%, negative = inhibition) at 1uM” value of the first is higher: 15.9% for the first, 10.7% for the second.

First: CCOc1ccc(NC(=S)C(C#N)=C2N(C)c3ccccc3N2C)cc1
Second: CCN1CCc2c(OCC(=O)Nc3ccc(C)cc3)cccc2C1=O
The “hERG current change (%, negative = inhibition) at 1uM” value of the first is lower: -13.1% for the first, 7.85% for the second.

Going from CN(C)c1cccc2c(C#N)ccc(N(C)C)c12 to COc1cccc(C2/C(=C(/O)c3ccc(F)cc3)C(=O)C(=O)N2CCN(C)C)c1 (centres unmarked), the “hERG current change (%, negative = inhibition) at 1uM” value rises from -6.16% to 15.7%.

Going from CC(C)c1oc(=O)cc2c1[C@@H](O)[C@H]1OC(=O)[C@@]3(C)C[C@@H](O)[C@@H](O)[C@@]2(C)C13 (some centres unmarked) to CC(C)OC(=O)CN1C(=O)C(C)(C)Oc2ccc(C(=O)NC3CC3)cc21, the “hERG current change (%, negative = inhibition) at 1uM” value falls from 7.58% to 0.145%.

Compared with CCCCN(CC)CCNc1c(NC2CCN(C(=O)OCC)CC2)c(=O)c1=O, C=CCn1c(O)c(C(CC)=NCCN2CCN(C(=S)NC)CC2)c(=O)[nH]c1=O is lower in “hERG current change (%, negative = inhibition) at 1uM” value: 11.8% for the first, 8.41% for the second.

First: CC(C)OCC(O)CN1CCNCC1.Cl (centres unmarked)
Second: CC(C)(C)OC(=O)N[C@H](Cc1ccccc1)C(=O)N1CCC(C(=O)O)CC1
The “hERG current change (%, negative = inhibition) at 1uM” value of the first is higher: 8.62% for the first, 5.76% for the second.

First: CN1C(=O)C(O)(C2OC(C)(C)CCC2=O)c2ccccc21 (centres unmarked)
Second: COc1ccccc1-c1nnc(SCC(=O)N2CC(C)CC(C)C2)o1 (centres unmarked)
The “hERG current change (%, negative = inhibition) at 1uM” value of the first is lower: 1.31% for the first, 8.62% for the second.

First: COc1cccc(C2(CSc3nnc(-c4cc(OC)c(OC)c(OC)c4)o3)OCCO2)c1
Second: Cc1cc(C)nc(SCC(=O)n2c3c(c4ccccc42)CCCC3)n1
The “hERG current change (%, negative = inhibition) at 1uM” value of the first is lower: -5.17% for the first, 10.3% for the second.

Compared with Cc1cccc(C(=O)NNS(=O)(=O)c2ccccc2[N+](=O)[O-])c1, CN(c1ccc(C(=O)Nc2ccccc2C(=O)N2CCCC2)cc1)S(C)(=O)=O is higher in “hERG current change (%, negative = inhibition) at 1uM” value: 6.95% for the first, 13.6% for the second.

First: O=C(Cc1ccc(S(=O)(=O)N2CCOCC2)s1)N1CCN(c2ccc(C(F)(F)F)cc2[N+](=O)[O-])CC1
Second: CC1CCN(S(=O)(=O)c2cnc(Cl)c(Br)c2)CC1
The “hERG current change (%, negative = inhibition) at 1uM” value of the first is lower: -15.5% for the first, 6.56% for the second.

First: O=C(c1c(F)cccc1F)N(Cc1ccccn1)C1CCCC1
Second: COc1cnc(-c2ccccn2)nc1Sc1ccc(F)cc1
The “hERG current change (%, negative = inhibition) at 1uM” value of the first is higher: 16.7% for the first, 10.3% for the second.

Compared with CC(=O)NS(=O)(=O)c1ccc(NC(=O)CCC(=O)Oc2ccc(C)cc2)cc1, CCN(CC)S(=O)(=O)c1ccc(C(=O)Nc2nnc(CSC)o2)cc1 is higher in “hERG current change (%, negative = inhibition) at 1uM” value: 8.92% for the first, 12.8% for the second.

Compared with COC(=O)CSc1nc2ccccc2nc1SCC(=O)OC, COC(=O)c1ccccc1CON1C(=O)C(C)(C)N(OCc2ccccc2C(=O)OC)C(=O)C1(C)C is lower in “hERG current change (%, negative = inhibition) at 1uM” value: 14% for the first, 7.4% for the second.

First: CCCC(=O)N1CCc2cc(-c3nc(N)sc3C)ccc21
Second: CCCCNC(=O)Cc1ccc(Br)cc1
The “hERG current change (%, negative = inhibition) at 1uM” value of the first is lower: 13.2% for the first, 13.4% for the second.

First: CSc1cccc(NC(=O)NCc2cccc(CNC(=O)Nc3cccc(SC)c3)c2)c1
Second: O=c1[nH]c2cc3c(cc2cc1CN(Cc1ccc2c(c1)OCO2)Cc1nnnn1CC1CCCO1)OCO3 (centres unmarked)
The “hERG current change (%, negative = inhibition) at 1uM” value of the first is higher: 12.5% for the first, 10.4% for the second.

With NC(=O)N/N=C/C=C/c1ccc(F)cc1 the “hERG current change (%, negative = inhibition) at 1uM” value was 12.3%.
